Results published in publication PMC4336329 (PLoS ONE, 2015).
Screen size: about 310,000 compounds; about 14,000 (4.5%) showed an effect of 50% or more. Effects have a minus sign here. The list shows a part of the results.

target: human ether-à-go-go-related gene (hERG) potassium channel (human, UniProt Q12809); assay: primary screen, population patch clamp on CHO cells stably expressing hERG
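Also: peak tail current of the secondary pulse compared with the same well before compound.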

Sequence of human ether-à-go-go-related gene (hERG) potassium channel (Q12809 whole entry, looked up): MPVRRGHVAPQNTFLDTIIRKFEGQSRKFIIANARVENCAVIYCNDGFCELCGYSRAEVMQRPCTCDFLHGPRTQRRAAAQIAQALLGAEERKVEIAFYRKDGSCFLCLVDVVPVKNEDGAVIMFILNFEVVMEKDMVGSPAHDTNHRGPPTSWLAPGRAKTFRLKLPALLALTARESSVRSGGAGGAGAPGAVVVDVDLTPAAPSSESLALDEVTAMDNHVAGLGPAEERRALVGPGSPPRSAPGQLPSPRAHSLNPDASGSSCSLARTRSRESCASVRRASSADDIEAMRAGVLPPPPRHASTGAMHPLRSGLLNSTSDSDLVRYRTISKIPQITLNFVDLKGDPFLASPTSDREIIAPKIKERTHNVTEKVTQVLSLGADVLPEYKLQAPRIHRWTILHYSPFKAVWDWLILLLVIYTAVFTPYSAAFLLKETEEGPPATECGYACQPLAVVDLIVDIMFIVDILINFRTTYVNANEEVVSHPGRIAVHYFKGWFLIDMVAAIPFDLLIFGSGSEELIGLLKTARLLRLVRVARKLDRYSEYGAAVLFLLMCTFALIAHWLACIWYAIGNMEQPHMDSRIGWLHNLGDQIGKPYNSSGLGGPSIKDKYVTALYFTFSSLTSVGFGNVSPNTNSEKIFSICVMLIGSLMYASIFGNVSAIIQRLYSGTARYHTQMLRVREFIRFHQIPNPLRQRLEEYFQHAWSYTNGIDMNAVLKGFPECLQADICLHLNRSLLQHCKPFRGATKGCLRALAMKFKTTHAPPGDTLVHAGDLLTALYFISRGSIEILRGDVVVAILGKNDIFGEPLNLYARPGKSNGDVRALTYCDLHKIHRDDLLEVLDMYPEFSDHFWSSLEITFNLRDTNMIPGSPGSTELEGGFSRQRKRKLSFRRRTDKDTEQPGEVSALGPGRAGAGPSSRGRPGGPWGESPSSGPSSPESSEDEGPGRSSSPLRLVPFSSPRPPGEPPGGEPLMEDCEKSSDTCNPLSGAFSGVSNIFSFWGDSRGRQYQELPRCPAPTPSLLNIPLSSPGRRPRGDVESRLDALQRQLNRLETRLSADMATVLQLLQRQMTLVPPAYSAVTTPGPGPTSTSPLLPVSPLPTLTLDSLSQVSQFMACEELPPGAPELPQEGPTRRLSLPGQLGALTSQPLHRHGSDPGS

| Structure (SMILES) | hERG current change (%, negative = inhibition) at 10uM [%] |
| --- | --- |
| Cc1ccc(-c2cc(C(=O)Nc3cccnc3)c3ccccc3n2)o1 | -8.27 |
| C=CCn1c(Oc2ccc(C(=O)OC)cc2)nc2c1c(=O)n(C)c(=O)n2C | 7.4 |
| OCCNCCc1c[nH]c2ccc(OCc3ccccc3)cc12 | -7.1 |
| CC(C)(C)c1cc(Br)c(O)c(N=Nc2ccc(S(=O)(=O)N3CCOCC3)cc2)c1 | 6.46 |
| Cc1cc(C)c(S(=O)(=O)NCCn2ccc3ccccc32)c(C)c1 | 9.34 |
| Cc1ccnc2ccc(-c3nc4ccccc4o3)cc12 | 1.44 |
| CC12CCC(C(=O)N3CCC(Cc4ccccc4)CC3)(C(=O)C1=O)C2(C)C (stereo not drawn) | -4.1 |
| COc1ccc(-c2[nH]ncc2/C=N\NC(=O)c2ccc(Br)o2)cc1OC | 3.74 |
| CCS(=O)(=O)N1CCCC(C(=O)NC2CCCCC2)C1 (stereo not drawn) | 17.4 |
| Cc1c(C(=O)N2CCCc3ccccc32)oc2ccccc12 | 10 |
| CCOC(=O)N1CCC(NC(=O)C2=CCN(S(=O)(=O)c3ccccc3)CC2)CC1 | -1.74 |
| CCN(CC)C(=O)C(=O)Nc1ccc(Oc2ccccc2)cc1 | -7.81 |
| CCOC(=O)c1cccc(NS(=O)(=O)c2c(C(=O)N3CCCCCC3)c(C)n(C)c2C)c1 | -19.1 |
| CC(=O)Nc1ccc(NC(=O)C/C(C)=N/NC(N)=S)cc1 | 21.3 |
| CCCOc1ccc(CN(CCO)CCO)cc1C(=O)OC | 6.82 |
| COC(=O)c1[nH]c2cc(OC)ccc2c1NC(=O)CCN1CCCCC1 | -20.5 |
| COC(=O)c1ccc(NS(=O)(=O)c2ccc(SC)cc2)cc1 | -2.34 |
| COc1ccccc1C/C(N)=N/OC(=O)COc1cccc2ccccc12 | 0.495 |
| Cc1n[nH]c(=O)n1-c1ccc(C(C)(C)C)cc1 | 23 |
| COc1ccc(CNC(=O)c2ccc(CS(=O)(=O)c3ccccc3C)o2)cc1 | -12.3 |
| COCCNC(=O)CCc1c(C)nc2c(c(C)nn2-c2ccc(C)cc2)c1C | -17.6 |
| Oc1c(C=C2N=c3ccccc3=N2)sc(=S)n1-c1ccc(F)cc1 [17401255] | 17.9 |

| Structure (SMILES) | hERG current change (%, negative = inhibition) at 10uM [%] |
| --- | --- |
| CC(C)S(=O)(=O)c1csc(NC(=O)Nc2ccc(Cl)cc2)c1 | 5.92 |
| Cc1cc(N2CCCC2)ccc1/C=C1/C(=O)N(C)C(=S)N1C | 12.6 |
| COc1cc(CNCCSc2nnnn2C)cc(OC)c1OC.Cl | -2.79 |
| CC1=C(C(N)=O)C(c2cccc(O)c2)n2nc(CCCO)nc2N1 (stereo not drawn) | 13.1 |
| CCCCCSc1cc(OC)c(CCN(C)C)cc1OC.O=C(O)/C=C\C(=O)O | -57.9 |
| COCCn1c(SCC(=O)N2CCCC2=O)nc2sc(C)c(C)c2c1=O | -11.9 |
| Cc1c(C(=O)Nc2ccc3c(c2)OCCO3)cnn1C | -6.25 |
| NC(=O)c1ccc(-n2nnnc2Oc2ccccc2C(=O)N2CCOCC2)cc1 | 15.8 |
| Cc1ccccc1-n1c(=O)n(CCc2ccccc2)c(=O)c2[nH]cnc21 | 12.8 |
| Cl.O.O=C1CC(=C(c2ccccc2)c2ccccc2)C(=O)N1CCN1CCN(c2cccc(Cl)c2)CC1 | -5.67 |
| O=C1C2C3c4ccccc4C(c4ccccc43)C2C(=O)N1c1cccnc1 (stereo not drawn) | -5 |
| Cn1c(=O)c2cc(S(=O)(=O)Nc3cccc(F)c3)ccc2n(C)c1=O | -1.69 |
| CCOC(=O)c1ccc2ncc(C(=O)OCC)c(NCCN3CCOCC3)c2c1 | -48.5 |
| Nc1ccc(C(=O)N2CCCC2)cc1 | 5.85 |
| COc1ccc(NC(=O)NC2CCN(C(C)C)CC2)c(OC)c1 | -8.9 |
| O=C(NCc1ccccc1)C1=C[C@H](c2ccccc2)C[C@H](OCc2ccc(CO)cc2)O1 | -11.2 |
| Cc1cc(NC(=O)c2ccccc2)n(C)n1 | 15.1 |
| CC(Oc1ccc(Cl)cc1Cl)C(=O)NCCCN(C)C (stereo not drawn) | -6.15 |
| O=c1oc2ccccc2c(NC(c2ccccc2)c2ccccc2)c1[N+](=O)[O-] | 3.46 |
| CCN1CCN(C2=NC(=O)/C(=C/c3ccc(C)o3)S2)CC1 | -20.9 |
| CCC(C)N(C(=O)Cn1cnc2c1c(=O)n(C)c(=O)n2C)C1CCS(=O)(=O)C1 (stereo not drawn) | 17.5 |
| O=[N+]([O-])c1ccc(Cl)c(/C=N/N2CCN(Cc3ccc(Cl)cc3)CC2)c1 | 4.9 |

| Structure (SMILES) | hERG current change (%, negative = inhibition) at 10uM [%] |
| --- | --- |
| Cc1nnc(NCCc2ccccc2)c2ccccc12 | -18.1 |
| C=CCOc1c(Br)cc(CNn2c(C)n[nH]c2=S)cc1OC | 13 |
| CC(C(=O)NCc1cccnc1)c1ccc([N+](=O)[O-])cc1 (stereo not drawn) | -42.5 |
| Cc1ccccc1S(=O)(=O)Cc1ccc(C(=O)NCCCN2CCC(C)CC2)o1 | -36.2 |
| CCOC(=O)c1cnc(SCC(=O)NNC(=O)c2ccco2)nc1N | 18.3 |
| COc1ccc(OCCNC(=S)Nc2cccc3ccccc23)cc1 | 3.79 |
| Cc1ccc(NC(=O)c2nnn(CC(=O)Nc3ccccc3)c2N)cc1C | -1.34 |
| CN(Cc1c(C(=O)N/N=C/c2cccc(Cl)c2)nnn1-c1nonc1N)c1ccccc1 | -4.34 |
| O=C(/C=C/c1ccccc1)N1CCN(c2ccc([N+](=O)[O-])c(N3CCOCC3)c2)CC1 | -54.3 |
| COC(=O)c1c(NC(=O)c2nc3nc(C)cc(C(F)F)n3n2)sc2c1CCC2 | 5.97 |
| CC1(C)CC(=O)C2=C(C1)c1c(ccc3ccccc13)NC2c1ccc(C(=O)O)cc1 (stereo not drawn) | 36.6 |
| Cc1ccc2c(c1)N(CC(=O)NCC1CCCO1)C(=O)CO2 (stereo not drawn) | 12 |
| COc1ccc(NC(=S)N2CCc3ccccc3C2)cc1OC | 9.77 |
| CC1=C(C#N)C(Nc2ccc(C)cn2)(C(F)(F)F)C(=O)N1 (stereo not drawn) | -15.2 |
| O=C(CCC(=O)N1CCOc2ccccc21)NC1CCCCCC1 | -20.8 |
| Cc1cc(=O)oc2c3c(cc(OCC(=O)NCc4ccco4)c12)OC(C)(C)CC3 | -13.5 |
| CCOC(=O)C1CCN(c2ncnc3c2cnn3-c2ccc(OC)cc2)CC1 | -16.2 |
| CC1Oc2ccccc2N(CC(=O)NCCCN2CCOCC2)C1=O (stereo not drawn) | 13 |
| O=C(c1ccc(Cn2c(=O)[nH]c3ccsc3c2=O)cc1)N1CCN(c2ccccc2)CC1 | 7.23 |
| CCc1c(C)sc(NC(=O)c2cc(C)on2)c1C#N | 6.34 |
| C[C@@H](C(=O)NCC1CCCO1)N1C(=O)N2CCc3c([nH]c4ccccc34)[C@@]2(C)C1=O (stereo partly drawn) | -17.2 |
| CN(C)S(=O)(=O)c1cccc(NC(=O)COC(=O)CNC(=O)c2cccc([N+](=O)[O-])c2)c1 | -39.6 |

| Structure (SMILES) | hERG current change (%, negative = inhibition) at 10uM [%] |
| --- | --- |
| CN1CCN(CCCNC(=O)CN2C(=O)COc3ccccc32)CC1 | -5.97 |
| COc1cc(/C=N/NC(=O)c2c(-c3ccccc3)noc2C)ccc1O | -10.9 |
| COc1ccc(C(=O)NCCc2ccccc2F)cc1OC1CCN(C(C)=O)CC1 | 4.19 |
| Cc1nnc(SCC(=O)NC2CC2)s1 | 19.5 |
| O=C(CNC(=O)c1ccco1)Nc1ccc(F)cc1 | 29.2 |
| CC1CCN(C(=O)CCN2C(=O)/C(=C/c3cccs3)SC2=S)CC1 | 2.87 |
| CC(CNCC1CCCO1)COc1cccc2ccccc12 (stereo not drawn) | -16.7 |
| COc1ccccc1C(=O)N/C(=C\c1cn(S(=O)(=O)N(C)C)c2ccccc12)C(=O)NCCCN1CCOCC1 | -7.58 |
| Cc1ccc(S(=O)(=O)c2nc(Nc3ccccc3C#N)sc2Cl)cc1 | 5.23 |
| Cc1cc(C)cc(NC(=O)Nc2cc(-c3ccccc3)nn2C)c1 | 18.1 |
| CC(=O)c1cccc(NC(=O)C23CC4CC(C2)CC(n2cncn2)(C4)C3)c1 | 5.88 |
| CC(=O)N1c2ccc(S(=O)(=O)NC(CC(=O)O)c3ccc(Br)cc3)cc2CC1C (stereo not drawn) | 22.3 |
| CCOc1ccc(NC(=O)CN(C)C(=O)c2c(-c3ccccc3Cl)noc2C)cc1OCC | -7.11 |
| CC(=O)c1cccc(N(C(=O)CNC(=O)c2ccco2)C(C(=O)NC2CCCC2)c2ccco2)c1 (stereo not drawn) | 2.79 |
| COc1ccc(S(=O)(=O)Nc2ccc3oc(C)c(C(C)=O)c3c2)cc1 | 12 |
| COc1ccc(-c2c(O)c(C#N)c(-c3ccccc3)n(-c3ccc(OC)cc3)c2=O)cc1 | 9.95 |
| O=C1Nc2ccc([N+](=O)[O-])cc2OC1CCN1CCN(Cc2ccc3c(c2)OCO3)CC1 (stereo not drawn) | -22.7 |
| COc1ccc(C2N(c3ccccc3)C(=S)N3CCCN23)cc1 (stereo not drawn) | 8.17 |
| CN(C)c1oc(-c2ccccc2)nc1C#N | -6.61 |
| CCOc1cc(C2NN=C(c3ccccc3)S2)ccc1OCc1ccccc1Cl (stereo not drawn) | 16.1 |
| O=C(CN(C(=O)CCC(=O)Nc1ccccn1)C1CCCC1)NCc1ccccc1 | 5.2 |
